Measured values reported in the RNAGym collection of RNA variant scans (doi:10.7554/elife.90254).
Read counts are not given, so values of variants with three or more changes are uncertain.

B1: OR4K15 (parent)
chain: GUUAACGGUCAUAGGCCAUGGAAACUAGGAGCACCAUUUCGCUGCCAGUGAAGAAAUGAACAAAGAAAAUCUGGGCCAGGCAGGCAUCAAAAGAAAUAGUCUUGCGCUCAACCAGAAAGUCUGUAAUCAUUUUAAGGGUA

Variants of: B1
Experiment: self-cleavage, relative activity (ratio to wild type); higher = more cleavage; in vitro, sequencing; the parent is a self-cleaving ribozyme

| Variant | self-cleavage |
| --- | --- |
| G79A A118G U139C | 0.06 |
| U70C A91G A94C A125G | 0.08 |
| A78G A110G U130C | 0.02 |
| A78G A82G A94G | 0.15 |
| U72C A90G A92G | 0.13 |
| U72C A95G U97C C107G A111C A114G | 0.01 |
| G75A G93U C112A | 0.01 |
| A78U U87C A111G | 0.02 |
| U72C G80U A140G | 0.18 |
| A68G A90C A116G A118U U132C | 0.03 |
| A69G U102C A110U A111G | 0.01 |
| U72C A86G U102C A110G A116G U132C | 0 |
| A68G A110G A126G | 0.12 |
| A68G G83A G93A | 2.49 |
| A78G U102C A129G | 0.23 |
| A82U A94G C113U A114U G123A U130C | 0 |
| A78U C88A A94G A95U U124C A125U C128U | 0.17 |
| U70C A90G A92G | 0.67 |
| U72G U108C U120C | 0.01 |
| A78U A86G A114G | 0.01 |
| U72A A92U A110U | 0.24 |

| Variant | self-cleavage |
| --- | --- |
| A82G G83A U97C | 0.67 |
| U72C C81U A86U | 0.16 |
| U72A A96G A111U A116G U132C | 0.01 |
| A68U A92G A116G | 0.56 |
| A78U U108C A116G | 0 |
| C77U A82G U100C | 1.64 |
| A82G A91G U131C | 0.04 |
| A67G U120A A125U U132C | 0.78 |
| A68G U103A U130C | 0.2 |
| A86C G106A U133C | 0.01 |
| G73A A94G U130C | 0.17 |
| A67G C85U U87C U102C | 0.94 |
| A82G A89G A96G U132C | 0 |
| G84A A95G U103C U130G | 1.25 |
| A69G A92G A117G U127C | 0.28 |
| A68G A98U A140U | 1.85 |
| A67G A96G U120A A125G | 0.25 |
| A68C A95G U108C | 0.01 |
| A78U U108C U122C | 0.01 |
| A82G U108A A117G | 0.02 |
| A68G A111G U131C | 0 |

| Variant | self-cleavage |
| --- | --- |
| A82U U100C A117G | 0.43 |
| U72C A94G U102C U132C | 0.49 |
| A68G C107G U131C | 0.03 |
| A82U A89G A126U | 0.09 |
| U72A U108A U122A | 0 |
| A78U U87A U108C A118C | 0 |
| U72C C77A A78G A140U | 0.25 |
| A78U U87A U132C | 0.27 |
| A78G A117G A126G | 0.15 |
| A69G U70C C105U | 0.07 |
| U72C A91G U120C A125G | 0.03 |
| A68U A91G U102C | 1.44 |
| A67G A118G A134G | 1.35 |
| A67G U122A U124C | 0.67 |
| G75A U103C A125C | 0.02 |
| A69G U70C A118U | 0.08 |
| A82G A86U C121U | 2.04 |
| G79A U87C A125G | 0.04 |
| U70C A82G U120C A125U | 0.08 |
| A68U U70A U100C U103A U108C | 0.01 |
| A69G A111G A126U U132C | 0 |

| Variant | self-cleavage |
| --- | --- |
| A67G U130C A140U | 1.56 |
| A69G A89G A129G U131C | 0.68 |
| C71U A126G U127C | 0.08 |
| G80A A92G A98G A118G | 0.04 |
| A69C U70C U108C A116G A117G | 0 |
| A67U U97C U103C | 1.05 |
| U72A A111G A134G | 0 |
| A68G U102C U103C | 0.25 |
| A68G A96U A111G | 0.03 |
| A69G A98G A114G | 0.14 |
| G73C A90G U120A | 0.07 |
| A82G U87C A92G | 0.33 |
| A82U U103G A114U | 0.01 |
| C76A U102C U108C | 0 |
| G83A U102C U133G | 0.18 |
| A67G G79U A114G | 0.03 |
| A69G U102C U131C | 1.42 |
| U72A A90G A91G | 0.16 |
| U72A C76U A94G | 0.16 |
| A67G A94U U127C | 1.25 |
| G74U A86G A89G A90G G106A U108C | 0.01 |
